The other results are listed elsewhere or left out.

For the test, the system named is HepG2. The test can be described thus: cytotoxicity call (relative viability < 0.9). The conditions noted are these: 10 µM.
Turning to `CC(C)NC(=O)Nc1ccc2c(c1)CC(=O)N([C@@H](C)CO)C[C@@H](C)[C@H](CN(C)Cc1ccc3c(c1)OCO3)O2`, the cytotoxicity call is “inactive”.

With `CO[C@@H](CN(C)S(=O)(=O)c1ccc(Cl)cc1)[C@H](C)CN([C@@H](C)CO)S(=O)(=O)c1cccc(Cl)c1`, the cytotoxicity call is “inactive”.

Take `COc1ccc(CNC(=O)C[C@@H]2C[C@H]3c4cc(NS(=O)(=O)c5ccc(F)cc5)ccc4O[C@H]3[C@H](CO)O2)cc1`: the cytotoxicity call was “inactive”.

`Cc1ccc(S(=O)(=O)N(C)C[C@@H]2OCCCC[C@H](C)Oc3ccc(NC(=O)Nc4ccc(C(F)(F)F)cc4)cc3C(=O)N([C@@H](C)CO)C[C@@H]2C)cc1`: the cytotoxicity call was “inactive”.

For `C[C@H](CO)N1C[C@H](C)[C@H](CN(C)Cc2ccc(-c3ccccc3)cc2)Oc2ccc(NC(=O)Nc3ccccc3)cc2CC1=O`, the cytotoxicity call was “active”.

For the molecule `COc1ccc(S(=O)(=O)N(C)C[C@@H]2OCCCC[C@@H](C)Oc3ccc(NC(=O)Nc4ccc(C(F)(F)F)cc4)cc3C(=O)N([C@H](C)CO)C[C@@H]2C)cc1`, the cytotoxicity call is “inactive”.

Turning to `C[C@H](CO)N1C[C@H](C)[C@@H](CN(C)S(=O)(=O)c2ccccc2F)Oc2ncc(Br)cc2C1=O`, the cytotoxicity call was “inactive”.

For `C[C@H](CO)N1C[C@H](C)[C@@H](CN(C)C(=O)NC2CCCCC2)OCCCC[C@H](C)Oc2ccc(NC(=O)NC3CCCCC3)cc2C1=O`, the cytotoxicity call was “inactive”.

`OCCN1C[C@H](O)[C@@H](O)[C@H](O)[C@H]1CO`: the cytotoxicity call was “inactive”.

As for `CC1=C(/C=C/C(C)=C/C=C/C(C)=C\C(=O)O)C(C)(C)CCC1`, the cytotoxicity call is “inactive”.

`COc1cccc(NC(=O)N(C)C[C@H]2Oc3cc(C#Cc4ccncc4)ccc3S(=O)(=O)N([C@@H](C)CO)C[C@H]2C)c1`: the cytotoxicity call is “active”.

Take `O=C(C[C@H]1CC[C@H]2[C@@H](COC[C@H](O)CN2C(=O)c2cccnc2)O1)NCc1ccc(-c2ccccc2)cc1`: the cytotoxicity call is “inactive”.

Take `C[C@@H]1CCCCO[C@@H](CN(C)C(=O)Nc2ccccc2)[C@H](C)CN([C@@H](C)CO)C(=O)c2cc(NS(=O)(=O)c3ccccc3)ccc2O1`: the cytotoxicity call is “inactive”.

`CC1(C)N=C(N)N=C(N)N1c1ccccc1`: the cytotoxicity call was “inactive”.

With `C[C@@H]1CN([C@H](C)CO)C(=O)c2ccccc2-c2ccccc2CO[C@H]1CN(C)C(=O)Nc1cccc(F)c1`, the cytotoxicity call is “inactive”.

As to `C[C@H](CO)N1C[C@H](C)[C@H](CN(C)Cc2ccncc2)OCCCC[C@H](C)Oc2ccc(NS(C)(=O)=O)cc2C1=O`, the cytotoxicity call is “inactive”.

For the molecule `C[C@@H]1CCCCO[C@H](CN(C)S(=O)(=O)c2cn(C)cn2)[C@@H](C)CN([C@@H](C)CO)C(=O)c2cc(NS(C)(=O)=O)ccc2O1`, the cytotoxicity call is “inactive”.

Take `COc1ccc(S(=O)(=O)Nc2ccc3c(c2)C(=O)N([C@H](C)CO)C[C@H](C)[C@H](CN(C)C(=O)Nc2ccc(C(F)(F)F)cc2)OCCCC[C@@H](C)O3)cc1`: the cytotoxicity call is “inactive”.

In the case of `C[C@@H]1CN([C@H](C)CO)C(=O)c2cccc(NS(=O)(=O)c3ccccc3)c2O[C@@H]1CN(C)C(=O)Nc1cccc2ccccc12`, the cytotoxicity call was “inactive”.

With `C[C@H]1CN([C@@H](C)CO)C(=O)c2cccc(NC(=O)Nc3cccc4ccccc34)c2O[C@H]1CN(C)Cc1ccc(Cl)c(Cl)c1`, the cytotoxicity call is “inactive”.

As to `Cc1cn(CCN2CCN(c3ccccc3-c3cc(C#N)cc(C(=O)NCCCN4CCCC4)c3)CC2)c2ccccc12`, the cytotoxicity call is “active”.

Consider `C[C@@H]1CCCCO[C@@H](CN(C)C(=O)NC2CCCCC2)[C@@H](C)CN([C@H](C)CO)C(=O)c2cc(NS(=O)(=O)c3ccc(Cl)cc3)ccc2O1`, for which the cytotoxicity call is “inactive”.

Regarding `COCC(=O)Nc1ccc2c(c1)OC[C@@H](C)N(C(=O)Cc1cccnc1)C[C@H](C)[C@@H](OC)CN(C)C2=O`, the cytotoxicity call is “inactive”.

For `CCOC(=O)C(C#N)C1=NCCC1` (stereo not given), the cytotoxicity call was “inactive”.

On to `C[C@H](CO)N1C[C@H](C)[C@@H](CN(C)C(=O)Nc2ccc3c(c2)OCO3)OCCCC[C@H](C)Oc2ccc(NC(=O)c3ccncc3)cc2C1=O`, for which the cytotoxicity call was “inactive”.

In the case of `C[C@H](CO)N1C[C@H](C)[C@H](CN(C)Cc2ccc(C(=O)O)cc2)OCc2ccccc2-c2c(n(C)c3ccccc23)C1=O`, the cytotoxicity call was “inactive”.

For the molecule `C[C@@H]1CN([C@@H](C)CO)C(=O)Cc2cc(NC(=O)Cn3cnnn3)ccc2O[C@H]1CN(C)Cc1ccc(C(=O)Nc2ccccc2N)cc1`, the cytotoxicity call is “inactive”.

Take `C[C@@H]1CN([C@H](C)CO)C(=O)c2cc(NC(=O)Cc3cn(C)c4ccccc34)ccc2O[C@@H]1CN(C)Cc1ccc(C(=O)Nc2ccccc2N)cc1`: the cytotoxicity call is “inactive”.

For the molecule `COc1ccccc1S(=O)(=O)N1C[C@H](O)COC[C@H]2O[C@@H](CC(=O)O)CC[C@@H]21`, the cytotoxicity call is “inactive”.

In the case of `C[C@@H]1CCCCO[C@H](CN(C)S(=O)(=O)c2ccccc2)[C@H](C)CN([C@@H](C)CO)C(=O)c2cc(NS(=O)(=O)c3ccc(Cl)cc3)ccc2O1`, the cytotoxicity call is “inactive”.

For `C[C@H]1CN([C@@H](C)CO)C(=O)Cc2cc(NC(=O)CCCCCC(=O)Nc3ccccc3N)ccc2O[C@@H]1CN(C)C(=O)Nc1ccccc1`, the cytotoxicity call is “inactive”.

Take `C[C@@H]1CN([C@H](C)CO)S(=O)(=O)c2ccc(C#CC3CC3)cc2O[C@H]1CN(C)C(=O)Cc1ccncc1`: the cytotoxicity call was “inactive”.

Regarding `C[C@@H]1CN([C@@H](C)CO)C(=O)c2cccc(NC(=O)c3ccc(-c4nccs4)cc3)c2O[C@H]1CN(C)Cc1ccc(C(F)(F)F)cc1`, the cytotoxicity call was “inactive”.

Consider `O=C(C[C@H]1CC[C@H]2NC[C@@H](O)COC[C@@H]2O1)NCCN1CCCC1`, for which the cytotoxicity call is “inactive”.

`O=C(C[C@@H]1CC[C@@H]2[C@H](COC[C@@H](O)CN2C(=O)c2cccnc2)O1)NCc1ccc(-c2ccccc2)cc1`: the cytotoxicity call is “inactive”.

On to `CCOC(=O)[C@H]1[C@@H]2C=C[C@]3(O2)[C@H](C(=O)NCc2ccccc2)N(Cc2cc(OC)cc(OC)c2)C(=O)[C@@H]13`, for which the cytotoxicity call is “inactive”.

As to `COc1cccc2c1C(=O)c1c(O)c3c(c(O)c1C2=O)C[C@@](O)(C(C)=O)C[C@@H]3O[C@H]1C[C@H](N)[C@H](O)[C@H](C)O1`, the cytotoxicity call is “active”.

For the molecule `CC(C)N(C[C@H]1O[C@@H](n2cnc3c(N)ncnc32)[C@H](O)[C@@H]1O)[C@H]1C[C@@H](CCc2nc3ccc(C(C)(C)C)cc3[nH]2)C1`, the cytotoxicity call was “active”.

Turning to `OC[C@H]1O[C@@](CO)(O[C@@H]2O[C@H](CO)[C@@H](O)[C@H](O)[C@H]2O)[C@@H](O[C@@H]2O[C@H](CO)[C@@H](O)[C@H](O)[C@H]2O)[C@@H]1O`, the cytotoxicity call was “inactive”.

As to `C[C@@H]1CN([C@@H](C)CO)C(=O)c2cc(NC(=O)NC3CCCCC3)ccc2O[C@@H](C)CCCCO[C@@H]1CN(C)Cc1ccncc1`, the cytotoxicity call was “inactive”.

Source of the values: the antibiotic and cytotoxicity screens of Wong et al. (2023).
